The source of these data is PMC7819943, “Rice protein-binding microarrays: a tool to detect cis-acting elements near promoter regions in rice”.

The list shows a part of the results.

The target of this assay is T1, OsWOX13 (Oryza sativa, UniProt Q5QMM3 1-267).
T1 sequence: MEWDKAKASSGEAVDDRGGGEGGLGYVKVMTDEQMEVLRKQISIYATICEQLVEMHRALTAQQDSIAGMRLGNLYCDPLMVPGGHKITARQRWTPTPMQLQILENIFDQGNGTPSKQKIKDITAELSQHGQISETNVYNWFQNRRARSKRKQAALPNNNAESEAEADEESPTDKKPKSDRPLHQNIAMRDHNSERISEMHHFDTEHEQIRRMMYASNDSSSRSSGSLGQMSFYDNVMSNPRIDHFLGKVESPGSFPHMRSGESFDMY
Nature of the assay: protein-binding microarray (RPBM); PBS, 2% BSA, 51.3 ng/ul salmon testes DNA, 50 uM zinc acetate, 200 nM TF, 25 C, 1 h; high values mean tight binding. To be noted: protein: recombinant; tags: N-terminal polyhistidine and DsRed monomer fusion (pET32a); label: CyDye5-dUTP incorporated in the synthesized complementary strand; 3' TTTTT single-stranded linker to array surface; dsDNA, one strand shown. The method in brief: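 An Axon 4000B scanner gave the binding signal as per-feature fluorescence intensity in arbitrary units. This followed washing of a custom Agilent array that had been incubated for 1 h at 25 °C with 200 nM protein in PBS, 2% BSA, salmon testes DNA and 50 µM zinc acetate. The proteins were transcription factors fused at the N-terminus to polyhistidine and DsRed, expressed in E. coli BL21-CodonPlus and purified on Ni–NTA.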
For “AATCTGTATCACAAATTTCTAATTAAACCGACGAATCAATCGGAGTCACCTAGTGCAG”, the binding signal is 3690 fluorescence intensity (a.u.).
Take “CTTAATTGATCTTATCCATGGAAACAGAAGAATGGCTATGCGGAGTCACCTAGTGCAG”: the binding signal is 36200 fluorescence intensity (a.u.).
The value for “ATAACTAATGGAATGAAATGTAAAAGTCGAAACTCTAGCTCGGAGTCACCTAGTGCAG” was 8840 fluorescence intensity (a.u.); that for “ATCTTGTGTTAATTTGCATGAGGAGAGCTTACCTTCCATGCGGAGTCACCTAGTGCAG” was 3780 fluorescence intensity (a.u.); that for “ATCAGCGAAAATTAGAATTTTCAACCTTAAATTTGGAGTCCGGAGTCACCTAGTGCAG” was 3880 fluorescence intensity (a.u.).
As for “AGACAAATAAACAAATTGCAAAACTGGGCGTTTTGTGTTACGGAGTCACCTAGTGCAG”, the figure is 4570 fluorescence intensity (a.u.).
Regarding “TAAATTGGCTATTACATTAGTTATAAATGATTTGGAGCTACGGAGTCACCTAGTGCAG”, the binding signal is 34400 fluorescence intensity (a.u.).
As to “AATTCATTTACAGTCAATCTAATAGTTAATTCATACAATACGGAGTCACCTAGTGCAG”, the binding signal was 15900 fluorescence intensity (a.u.).
The value for “GTAATTAATTAACAACTCACCGTCCTTATATAATTGTTTTCGGAGTCACCTAGTGCAG” was 35500 fluorescence intensity (a.u.); that for “ACTTAAACTTGATCACTAAACAAACGTGTCAGATTACACGCGGAGTCACCTAGTGCAG” was 4040 fluorescence intensity (a.u.).
As for “GAATATTAAACTTCCAAAACAGGTCCAAAGCTATGTTCTTCGGAGTCACCTAGTGCAG”, the figure is 57500 fluorescence intensity (a.u.); as for “AAGTAATTAATCTAACAAATGCCTCAATTAACATTGGTTACGGAGTCACCTAGTGCAG”, 33500 fluorescence intensity (a.u.).
The value for “TTAAATCTAAATTGTTCTCACATGTATGCCATATGTAGTACGGAGTCACCTAGTGCAG” was 4880 fluorescence intensity (a.u.).
For the sequence “TCTGCTAATTTATCAGATAATCACTATTAGTTTTATTCCGCGGAGTCACCTAGTGCAG”, the binding signal was 27400 fluorescence intensity (a.u.).
The value for “ATTTATTGAGAATAAATTGCTCTATTACAACTTGCAAACTCGGAGTCACCTAGTGCAG” was 12300 fluorescence intensity (a.u.); that for “ATACATGATTACACGAATTGAAGGATATGCGTGCTCACTGCGGAGTCACCTAGTGCAG” was 24800 fluorescence intensity (a.u.).
The value for “GTACAGTTTAGAACAATCAATAACGATGCGATATGTACCACGGAGTCACCTAGTGCAG” was 3220 fluorescence intensity (a.u.); that for “AACTAAGTTAAATGCACCAATTAATTATAGACCATGTCACCGGAGTCACCTAGTGCAG” was 6140 fluorescence intensity (a.u.); that for “GAGATTGGTATGGTCCCTCAATAAAATGGTGCCATCAAGCCGGAGTCACCTAGTGCAG” was 3650 fluorescence intensity (a.u.).
As for “CTCCAGTCATTAACTAGTTGTAAATGGAATAGTATTAGTACGGAGTCACCTAGTGCAG”, the figure is 8900 fluorescence intensity (a.u.); as for “AAGATGTGTCAATTAATTATTTGCCACTCGTTATCTATGACGGAGTCACCTAGTGCAG”, 13400 fluorescence intensity (a.u.); as for “TGTAACGCTATCACAAAATAAATTAGATATGTGAAGCTGGCGGAGTCACCTAGTGCAG”, 8750 fluorescence intensity (a.u.).
“ATGTAATTTCTATTCATAGAAAAGCATGGGTACTCAGCTACGGAGTCACCTAGTGCAG”: the binding signal was 9070 fluorescence intensity (a.u.).
The value for “ATCTAGACGTATAAATTTGTGTGGAATTTTGTACAACTCACGGAGTCACCTAGTGCAG” was 3350 fluorescence intensity (a.u.); that for “TCAATAAATGTAAATTTATTTGTATAATCAGCTGCCAGTACGGAGTCACCTAGTGCAG” was 16800 fluorescence intensity (a.u.).
As for “GAAATACTTACAATGATAGATTTCACTATCCCTATCACTGCGGAGTCACCTAGTGCAG”, the figure is 3750 fluorescence intensity (a.u.); as for “TTCTATTATTGATTTTGGCCGACCGAACAAAGATAGTTTCCGGAGTCACCTAGTGCAG”, 9880 fluorescence intensity (a.u.).
Regarding “ACTTAATTATCCTAGAGGTGGAAAAGAAAAGACTTTTGAGCGGAGTCACCTAGTGCAG”, the binding signal was 24500 fluorescence intensity (a.u.).
The value for “GGCTGGTTTGATTGACCATGTGCCGTTCATAGGAGTAGTCCGGAGTCACCTAGTGCAG” was 33400 fluorescence intensity (a.u.).
The value for “ACAGTTGACTGCACCGTGTCATTGTCACTAACATGTGGACCGGAGTCACCTAGTGCAG” was 8180 fluorescence intensity (a.u.); that for “GGAGTAAATACAAATTTAATTTACAACTTTTCTCAATTTACGGAGTCACCTAGTGCAG” was 6430 fluorescence intensity (a.u.).
The value for “ATAGTAATTATAATGACACAAAGGTCAATTAATCAATTAACGGAGTCACCTAGTGCAG” was 17100 fluorescence intensity (a.u.); that for “CTGAATTGATCGACAAGTCCACAGGGTAAGTACTTCTGTTCGGAGTCACCTAGTGCAG” was 20000 fluorescence intensity (a.u.); that for “AGTGAGTAATTAATGCCCTGAAGTTCCTTCTTATTTCTAACGGAGTCACCTAGTGCAG” was 3500 fluorescence intensity (a.u.).
As for “TATTAATATATTAATTAATCAAAACCCTTTCCTTCTTTCACGGAGTCACCTAGTGCAG”, the binding signal was 13600 fluorescence intensity (a.u.).
The value for “CGCTTGTACTGATTTGGTTTTGGTTGCTGGGTTGGATGGTCGGAGTCACCTAGTGCAG” was 5960 fluorescence intensity (a.u.); that for “ACTAAATTGACTTATTAGGTGTTGTCACAGTTTACTTGACCGGAGTCACCTAGTGCAG” was 46000 fluorescence intensity (a.u.).
Take “CACTGGGATTGGTTGGTCTGGTCAGCAAGCAGAGCACCGCCGGAGTCACCTAGTGCAG”: the binding signal is 9500 fluorescence intensity (a.u.).
The value for “CCCCTACAGCAGGCAATTAAGATTGAATTGCATACATTAACGGAGTCACCTAGTGCAG” was 3610 fluorescence intensity (a.u.); that for “CAAATTTAATTAGTAGTAGAAGATATATTGTCTTCTAGCTCGGAGTCACCTAGTGCAG” was 35000 fluorescence intensity (a.u.); that for “AAGTAATTATTAATTCTTTTCGTATCATTTGGTTCATTGTCGGAGTCACCTAGTGCAG” was 29800 fluorescence intensity (a.u.).
The value for “TGTAATGATTTTCACTGAGCTGAAGGATATTAATTTGCATCGGAGTCACCTAGTGCAG” was 18200 fluorescence intensity (a.u.).
